The source of these data is ChEMBL document CHEMBL4888484, “Replenishing the malaria drug discovery pipeline: Screening and hit evaluation of the MMV Hit Generation Library 1 (HGL1) against asexual blood stage Plasmodium falciparum ,using a nano luciferase reporter read-out” (2022).

In all, about 150,000 compounds went through this assay and about 540 (0.36%) showed an effect of 50% or more. This is one part of the list.

For this test, the system named is Plasmodium falciparum. The test can be described thus: Primary screen in NF54 nanoGlo assay, in single point, at 2uM, 72h; a lower Z score goes with more inhibition. Type of test: functional, Erythrocyte. The note with it: timepoint 72 hour.
For the compound `O=C(NC(c1ccccc1)c1ccccc1)N1CCCCC1`, the % Inhibition (in general, the drop in the measured response relative to a control, in per cent) is -1% and the Z score is given as 0.25.
The like results for `CC(C)[C@H](C)n1nccc1NC(=O)c1ccc(-n2cnnc2)nc1` were, in that order, -13% and 1.8.
`CN(C)C(=O)c1cccnc1N1CCC(C(=O)O)(n2ccnc2)CC1`: the “% Inhibition” value was -13% and the Z score is given as 1.54.
The corresponding values for `COC(=O)c1ccc2c(c1)CC[C@H](NCc1cc(C)n(C)n1)C(=O)N2` are -6% and 1.24.
The corresponding values for `Cc1c(F)ccc(Cl)c1NC(=O)CC[C@H]1CC[C@@H](C(N)=O)O1` are -6% and 0.65.
Consider `C[C@@H](c1cccc(C(F)(F)F)c1)N(C(=O)c1cc[n+]([O-])cc1)C1CC1`, for which the “% Inhibition” value is listed as -9% and the Z score was 1.13.
The corresponding values for `Cc1cc(=O)c(C(=O)NCc2ccccn2)c(CC2CCCC2)n1C` are -10% and 1.41.
On to `CCOC(=O)C1=C(C(=O)OCC)SC(=C2C(=S)C(C)(C)N(C(=O)Cc3ccccc3)c3ccc(OCC)cc32)S1`, for which the “% Inhibition” value was 5% and the Z score is -0.55.
The like results for `COc1ccc(CC(=O)N2[C@H](C(=O)NC3CC3)C[C@@H]3OCC[C@@H]32)c(F)c1` were, in that order, 4% and -0.57.
The corresponding values for `Cc1cc(O)ncc1NC(=O)Cc1cccc2ccccc12` are 1% and -0.08.
The like results for `Cc1cc(NC(=O)NCCc2csc(C)n2)no1` were, in that order, -15% and 2.87.
Consider `COC1(C)CC(NC(=O)NCc2cnn(C)c2)C1(C)C` (configuration not stated), for which the “% Inhibition” value was -9% and the Z score was found to be 1.22.
`O[C@@H](Cn1nc(N2CCCC2)sc1=S)c1ccccc1`: the “% Inhibition” value is -21% and the Z score stood at 2.5.
The corresponding values for `CC1CCC(C(C)C)C(OC(=O)Cn2nnc(C(N)=O)n2)C1` (configuration not stated) are 19% and -2.22.
The like results for `O=C(c1c[nH]nc1C1CCCCC1)N1CCC(Oc2cccnc2)CC1` were, in that order, -1% and 0.21.
For the compound `Cc1cnn(CCC(=O)N[C@H](C)c2ccc3c(c2)CCO3)c1`, the “% Inhibition” value worked out at 7% and the Z score was -1.03.
`CC(=O)c1ccc(NC(=O)Cn2c(-c3ccccc3)nc(C)cc2=O)cc1`: the “% Inhibition” value came out at 33% and the Z score is recorded as -0.49.
As to `CCn1cc(C(=O)NC(CC2CCCc3ccccc32)C(=O)O)cn1` (configuration not stated), the “% Inhibition” value turned out to be 10% and the Z score was -1.02.
For the compound `CN(Cc1ccccc1S(N)(=O)=O)C(=O)[C@H]1CCc2cncn2C1`, the “% Inhibition” value amounted to 13% and the Z score was -1.67.
For `O=C(CS(=O)(=O)C1CCCC1)N1CCC[C@@H]1CN1CCCC1`, the “% Inhibition” value is -7% and the Z score is 0.68.
The like results for `COc1cccnc1NC(=O)c1cnn(C)c1` were, in that order, 34% and -4.63.
`Cc1nc2ccccn2c1CNC(=O)c1noc2c1CC(C)(C)CC2`: the “% Inhibition” value is -8% and the Z score stood at 1.51.
The corresponding values for `Cc1cc(Oc2nc(N3CCCCC3)nc3c2CN(S(=O)(=O)c2ccc(F)cc2)CC3)ccc1F` are -11% and 1.51.
As to `CCN(CC)C(=O)CN1CCCN(c2ncnc3c2cnn3C)CC1`, the “% Inhibition” value is -7% and the Z score is 0.64.
The corresponding values for `Cc1cc(C)n(CC(=O)N2CC(=O)Nc3cc(F)c(F)cc32)n1` are 3% and -0.43.
As for `Cc1cc(C(F)(F)F)n(C[C@@H](C)CNC(=O)CNC(=O)N(C)C)n1`, the “% Inhibition” value is reported as -11% and the Z score came to 1.77.
The corresponding values for `O[C@H](CCN1CCC2(CCCC2)C1)c1ccccc1` are -13% and 1.8.
The like results for `O=C(CN1CCOC1=O)N1CC[C@@]2(CCCN(CCCc3ccccc3)C2)C1` were, in that order, 8% and -1.5.
The corresponding values for `Cc1c(Cl)cnn1Cc1nnc(-c2ccc(C#N)cc2)o1` are -1% and 0.07.
As to `O=C(COc1ccccc1)N1CC[C@H]2[C@H](CCCN2CC2CC=CCC2)C1` (some centres not stated), the “% Inhibition” value is -13% and the Z score is reported as 1.75.
The like results for `O=C1Nc2ccc(-c3ccc4c(c3)OCO4)cc2C(=O)N2CC[C@H](NC(=O)N3CCOCC3)[C@@H]12` were, in that order, -14% and 2.7.
Take `CCOc1ccc([C@H]2NS(=O)(=O)NC2=N)cc1`: the “% Inhibition” value is recorded as 2% and the Z score is reported as -0.26.
Regarding `O=C(c1ccccc1)N1CCC[C@@](F)(C(=O)NCc2ccncc2)C1`, the “% Inhibition” value is -14% and the Z score was determined as 1.2.
With `CN1CCC(NC(=O)c2cccc3cc[nH]c23)CC1`, the “% Inhibition” value is reported as -8% and the Z score is given as 1.06.
Take `CC[C@H](C)C(=O)NCC(=O)Nc1ccccc1-n1ccnn1`: the “% Inhibition” value turned out to be 6% and the Z score is on record as -0.48.
The like results for `COc1ccc(S(=O)(=O)N2CCOCC2)cc1NC(=O)C1(c2cccc(Cl)c2)CCCCC1` were, in that order, -1% and 0.1.
The like results for `Cc1cnc(C(=O)N2CCCN(Cc3ccc(Cl)cc3)CC2)cn1` were, in that order, -1% and 0.13.
For the compound `CC(C)C1(CNC(=O)N2CC(=O)N[C@@H](C)C2)CC1`, the “% Inhibition” value is recorded as -19% and the Z score came to 3.17.
The like results for `Cc1noc2nc(CCC(=O)NCCN3CCCC3)nc(N3CCCCCC3)c12` were, in that order, -6% and 0.89.
Turning to `C=CCn1c(-c2ccccc2Cl)cn2cc(C(=O)N3CCN[C@@H](CC)C3)nc2c1=O`, the “% Inhibition” value is reported as -22% and the Z score is 2.56.
The corresponding values for `Cc1csc([C@@H](C)CNC(=O)N2CCCNC(=O)C2)n1` are -3% and 0.26.
